{"source": "PubChem BioAssay AID1508624", "about": "(National Center for Advancing Translational Sciences (NCATS), 2021)", "note": "Hit rate of the full screen: of about 48,000 compounds, about 120 (0.25%) were called active. Not shown: some 4% with an inconclusive outcome. Calls come from the whole dose curve; as a rule, active = well fitted activation curve with a large enough effect; inconclusive = small, poorly fitted or top-dose-only effect, or another doubt; inactive = no such curve, though single readings can be large or run the other way. This is a selection; strong and weak results do not stand in their true shares. Entries without a call were filed so in the source. Potency is the fitted concentration of half-maximal effect."}
{"experiment": "Primary qHTS for Identification of Small Molecule Activators of Huntingtin-Antisense Promoter Activity; note: nearly all actives have a fitted effect of over 55% in size", "details": "HEK293 HTT-AS promoter firefly luciferase reporter, 24 h; activity change, positive = activation: at 57.5 µM (top of the series), percent change from vehicle, -100% = no light", "outline": "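Firefly luciferase readout (Dual-Glo, 10 min RT) after 24 h, 37 °C compound exposure (final up to 57.5 uM) of HEK293 reporter cells cultured 24 h beforehand; PTC124 at 50 uM final as control inhibitor; activity scaled vehicle 0%, zero RLU -100%.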"}
{"smiles": "Cc1ccc(C(=O)N2CCN(Cc3cc(=O)n4nc(-c5ccccc5)sc4n3)CC2)cc1", "activity change, positive = activation": "0.529%"}
{"smiles": "CCc1nn2c(=O)c(S(=O)(=O)Nc3ccc(C)c(C)c3)c(C)nc2s1", "activity change, positive = activation": "-31.9%"}
{"smiles": "COc1ccc(CNC(=O)Cn2c(-c3ccccc3)cc(C(C)=O)c2C)cc1OC", "activity change, positive = activation": "-23.4%"}
{"smiles": "CC(C)(N)C(=O)N[C@H](COCc1ccccc1)C(=O)N1CCC2(CC1)CN(S(C)(=O)=O)c1ccccc12", "activity change, positive = activation": "inactive: -4.33%"}
{"smiles": "Cc1cc(NC(=O)c2cc(-c3ccc(Br)cc3)on2)nn1Cc1ccc(Cl)cc1", "activity change, positive = activation": "-14.6%"}
{"smiles": "CN1CCN(C(=O)Cn2c(-c3cccs3)cc3ccccc32)CC1", "activity change, positive = activation": "inactive: -11.9%"}
{"smiles": "Cc1nc2ccn(Cc3ccco3)c(=O)c2cc1C(=O)Nc1ccc(F)cc1", "activity change, positive = activation": "-22.2%"}
{"smiles": "COc1ccc(CNC(=O)CCc2c(C)c3ccc(OC)c(C)c3oc2=O)cc1OC", "activity change, positive = activation": "-8.48%"}
{"smiles": "Cc1cc(NC(=O)c2ccccc2F)ccc1-c1nc2ccccc2s1", "Potency": "active: 0.891 µM"}
{"smiles": "COc1ccc(S(=O)(=O)N2CCC(N3CCN(Cc4ccccc4)C(=O)C3=O)CC2)cc1", "activity change, positive = activation": "7.88%"}
{"smiles": "Cc1nc2ccn(Cc3cccs3)c(=O)c2cc1C(=O)NCc1ccc(Br)cc1", "activity change, positive = activation": "-37.5%"}
{"smiles": "CCCc1cc(=O)n2c(C(=O)Nc3ccc(OCC)cc3)c(C(=O)Nc3ccc(C)cc3)sc2n1", "activity change, positive = activation": "-7.45%"}
{"smiles": "COc1ccc(C)cc1NC(=O)CCc1c(C)nn(-c2ccc(N3CCCCC3)nn2)c1C", "activity change, positive = activation": "16.5%"}
{"smiles": "CC1CCN(c2nn3c(=O)c(C(=O)NCCc4ccccc4)cnc3s2)CC1", "activity change, positive = activation": "7.72%"}
{"smiles": "Cc1ccc(C2Nc3cc(C)c(C)cc3-n3c(-c4ccccc4)c4c(=O)n(C)c(=O)n(C)c4c32)o1", "note": "(centres undefined)", "activity change, positive = activation": "12.3%"}
{"smiles": "Cc1nc2scc(C)n2c(=O)c1S(=O)(=O)Nc1ccc(N2CCN(S(C)(=O)=O)CC2)cc1", "activity change, positive = activation": "-39.2%"}
{"smiles": "CCOC(=O)c1cccc(NC(=O)CC2C(=O)N(c3ccc(C)cc3)C(=O)N2Cc2cccc(OC)c2)c1", "note": "(centres undefined)", "activity change, positive = activation": "-22.5%"}
{"smiles": "C[C@H](NC(=O)C(=O)Nc1ccccc1C(C)(C)C)C(=O)N[C@@H](CC(=O)O)C(=O)COc1c(F)c(F)cc(F)c1F", "activity change, positive = activation": "inactive: -30.8%"}
{"smiles": "CCOc1ccc(NC(=O)c2sc3ccccc3c2Cl)cc1", "activity change, positive = activation": "69.3%"}
{"smiles": "COc1ccc(-c2nc(SCC(=O)c3ccc(Br)cc3)n[nH]2)cc1", "activity change, positive = activation": "inactive: 9.16%"}
{"smiles": "COc1cccc(-c2cc(C(=O)N3CCN(c4ccccc4OC)CC3)no2)c1", "activity change, positive = activation": "-3.69%"}
{"smiles": "CCOc1ccccc1NC(=O)CC(c1ccc(F)cc1)N1Cc2ccccc2C1=O", "note": "(centres undefined)", "activity change, positive = activation": "-14.1%"}
{"smiles": "COc1ccc(CNC(=O)CCc2c(C)nn(-c3ccc(N4CCCCC4)nn3)c2C)cc1", "activity change, positive = activation": "-15.7%"}
{"smiles": "CCN(CC)CCCNC(=O)c1cc(-c2ccc(OC)c(OC)c2)on1", "activity change, positive = activation": "-3.11%"}
{"smiles": "COc1cc2c(cc1OC)C(c1ccc(Cl)cc1)N(c1ccc(C)c(F)c1)C(=O)C2", "note": "(centres undefined)", "activity change, positive = activation": "-33.2%"}
{"smiles": "CC(=O)c1c(C)oc2c1cc(NS(=O)(=O)c1ccc(Br)cc1)c1ccccc12", "activity change, positive = activation": "inactive: -39.3%"}
{"smiles": "COc1ccc(C2C(=O)N(C3CCCCCC3)CC(=O)N2Cc2ccc(C)cc2)cc1", "note": "(centres undefined)", "activity change, positive = activation": "-17.8%"}
{"smiles": "O=C1C(c2ccc(F)cc2)N(CCc2ccc(Cl)cc2)C(=O)CN1C1CCCCCC1", "note": "(centres undefined)", "activity change, positive = activation": "-37.9%"}
{"smiles": "CC[C@@H](CO)NCCN[C@@H](CC)CO", "activity change, positive = activation": "inactive: -0.0438%"}
{"smiles": "COc1cc(C2CC(=O)Nc3c2c(C)nn3-c2nncc(-c3ccc(C)cc3)n2)cc(OC)c1OC", "note": "(centres undefined)", "activity change, positive = activation": "6.51%"}
{"smiles": "CCc1ccc(NC(=O)CC2C(=O)N(c3cccc(OC)c3)C(=O)N2C2CCCC2)cc1", "note": "(centres undefined)", "activity change, positive = activation": "-26.1%"}
{"smiles": "COc1ccccc1N1CCN(C(=O)C2CCN(S(=O)(=O)Cc3ccccc3)CC2)CC1", "activity change, positive = activation": "-6.36%"}
{"smiles": "COc1ccccc1N1CCN(C(=O)c2cn(CC(C)C)c(=O)c3c2c2ccccc2n3C)CC1", "activity change, positive = activation": "inactive: -29.9%"}
{"smiles": "CCCOc1ccc(NC(=O)CC2C(=O)N(c3cccc(OC)c3)C(=O)N2Cc2cccs2)cc1", "note": "(centres undefined)", "activity change, positive = activation": "-12.7%"}
{"smiles": "Cc1ccc2nc(N3CCN(c4ccccc4)CC3)c3nnnn3c2c1", "activity change, positive = activation": "7.37%"}
{"smiles": "Cc1nn(Cc2ccc(Cl)c(Cl)c2)c(C)c1NC(=O)c1noc2c1CCc1ccccc1-2", "activity change, positive = activation": "-38.8%"}
{"smiles": "CC(=O)c1ccc(S(=O)(=O)Nc2ccc(-c3ccc(N4CCCCCC4)nn3)cc2)cc1", "activity change, positive = activation": "-0.765%"}
{"smiles": "CCOC(=O)c1ccc(NS(=O)(=O)c2ccc(-c3cc(C)no3)cc2)cc1", "activity change, positive = activation": "-22.2%"}
{"smiles": "Cc1c(NC(=O)Nc2ccc(Br)cc2F)sc2nc3n(c(=O)c12)CCC(C)CC3", "note": "(centres undefined)", "activity change, positive = activation": "3.29%"}
{"smiles": "CCCCc1nn2c(=O)cc(COC(=O)c3cccc(NC(=O)CCc4ccccc4)c3)nc2s1", "Potency": "active: 0.251 µM"}
{"smiles": "Cc1ccc(CN2CCN(C3CCN(C(=O)c4ccccc4)CC3)C(=O)C2=O)cc1", "activity change, positive = activation": "-2.57%"}
{"smiles": "Cc1nc(-c2ccc(Cl)cc2)sc1CCNC(=O)Cc1ccc(F)cc1", "activity change, positive = activation": "inactive: -38.2%"}
{"smiles": "CCN(CC)CCCNC(=O)CSc1c2c(nc3cc(Cl)ccc13)CCCC2", "activity change, positive = activation": "inactive: -66.7%"}
{"smiles": "CCc1ccccc1NC(=O)Nc1ccc2c(c1)N(CC)C(=O)c1ccccc1S2", "activity change, positive = activation": "inactive: -44.1%"}
{"smiles": "CCOc1ccc(CCNC(=O)CN2CCN(Cc3ccc(Cl)cc3)C2=O)cc1OCC", "activity change, positive = activation": "inactive: -27.2%"}
{"smiles": "COc1ccc(NC(=O)CC2C(=O)N(c3cccc(C)c3)C(=O)N2Cc2cccnc2)cc1", "note": "(centres undefined)", "activity change, positive = activation": "8.2%"}
{"smiles": "Cc1nc2cccnc2n1C1CCN(S(=O)(=O)N(C)C)CC1", "activity change, positive = activation": "0.892%"}
{"smiles": "Cc1ccccc1CNC(=O)C1CCN(S(=O)(=O)Cc2ccccc2)CC1", "activity change, positive = activation": "-2.62%"}
{"smiles": "Cc1cc(NC(=O)c2cc(-c3cccc(Cl)c3)on2)nn1Cc1ccc(Cl)cc1", "activity change, positive = activation": "inactive: -41%"}
{"smiles": "COC(=O)CN1C(=O)CSc2ccc(S(=O)(=O)Nc3cccc(Br)c3)cc21", "activity change, positive = activation": "-20%"}
{"smiles": "CCc1ccc(NC(=O)CC2C(=O)N(c3cccc(C)c3)C(=O)N2CCC(C)C)cc1", "note": "(centres undefined)", "activity change, positive = activation": "-31.1%"}
{"smiles": "CC(C)OC(=O)C(C(=O)C(F)(F)F)c1cc(NS(=O)(=O)c2ccc3c4c(cccc24)C(=O)N3)ccc1O", "note": "(centres undefined)", "activity change, positive = activation": "-27.6%"}
{"smiles": "Cc1cc(C)cc(OCCSc2nc(-c3ccc(C(C)(C)C)cc3)nc3cc(=O)[nH]n23)c1", "activity change, positive = activation": "-16.3%"}
{"smiles": "N#CC1=C2SCN(C3CCCCC3)CN2C(=O)CC1c1ccc(F)cc1", "note": "(centres undefined)", "activity change, positive = activation": "inactive: -9.7%"}
{"smiles": "CC(=O)N1c2c(cc(Br)cc2S(=O)(=O)Nc2ccccc2C)CC1C", "note": "(centres undefined)", "activity change, positive = activation": "inactive: -25.5%"}
{"smiles": "O=C(Nc1cccc(C(F)(F)F)c1)c1ccc(F)c(S(=O)(=O)N2CCc3ccccc3C2)c1", "activity change, positive = activation": "inactive: -39.8%"}
{"smiles": "CC1CCc2c(sc(NC(=O)c3cc(-c4ccc(Br)cc4)on3)c2C(N)=O)C1", "note": "(centres undefined)", "activity change, positive = activation": "6.29%"}
{"smiles": "CCCCOc1ccc(CN2C(=O)C(=O)c3cc(C)ccc32)cc1OC", "activity change, positive = activation": "inactive: -2.33%"}
{"smiles": "COc1ccc(Cl)cc1NC(=O)COc1cccc2c(=O)n(C)ccc12", "activity change, positive = activation": "inactive: -6.52%"}
{"smiles": "COc1cc(NC(=O)c2noc3c2CC(C(C)(C)C)CC3)cc(OC)c1OC", "note": "(centres undefined)", "activity change, positive = activation": "5.89%"}
{"smiles": "Cc1nn(-c2ccc(N3CCCC3)nn2)c(C)c1CCC(=O)N1CCN(c2ccc(F)cc2)CC1", "activity change, positive = activation": "-9.94%"}
{"smiles": "COc1ccc(Cl)cc1NC(=O)c1noc2c1CCc1ccccc1-2", "activity change, positive = activation": "6.71%"}
{"smiles": "CCOc1ccc2nc(Cl)c(C3CC(c4ccccc4)=NN3C(=O)CCC(=O)O)cc2c1", "note": "(centres undefined)", "activity change, positive = activation": "11.8%"}
{"smiles": "CCc1cc(=O)oc2c(C)c(OCC(=O)Nc3ccc(S(=O)(=O)N(CC)CC)cc3)ccc12", "activity change, positive = activation": "-12.6%"}
